Measured values reported in article PMC4336329 (PLoS ONE, 2015).
Screen size: about 310,000 compounds; about 14,000 (4.5%) showed an effect of 50% or more. Effects have a minus sign here. The list shows a part of the results.

These molecules were tested against human ether-à-go-go-related gene (hERG) potassium channel (human, UniProt Q12809) (assay: primary screen, population patch clamp on CHO cells stably expressing hERG).
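Further: peak tail current of the secondary pulse compared with the same well before compound.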

Chain of human ether-à-go-go-related gene (hERG) potassium channel (Q12809 whole entry, looked up): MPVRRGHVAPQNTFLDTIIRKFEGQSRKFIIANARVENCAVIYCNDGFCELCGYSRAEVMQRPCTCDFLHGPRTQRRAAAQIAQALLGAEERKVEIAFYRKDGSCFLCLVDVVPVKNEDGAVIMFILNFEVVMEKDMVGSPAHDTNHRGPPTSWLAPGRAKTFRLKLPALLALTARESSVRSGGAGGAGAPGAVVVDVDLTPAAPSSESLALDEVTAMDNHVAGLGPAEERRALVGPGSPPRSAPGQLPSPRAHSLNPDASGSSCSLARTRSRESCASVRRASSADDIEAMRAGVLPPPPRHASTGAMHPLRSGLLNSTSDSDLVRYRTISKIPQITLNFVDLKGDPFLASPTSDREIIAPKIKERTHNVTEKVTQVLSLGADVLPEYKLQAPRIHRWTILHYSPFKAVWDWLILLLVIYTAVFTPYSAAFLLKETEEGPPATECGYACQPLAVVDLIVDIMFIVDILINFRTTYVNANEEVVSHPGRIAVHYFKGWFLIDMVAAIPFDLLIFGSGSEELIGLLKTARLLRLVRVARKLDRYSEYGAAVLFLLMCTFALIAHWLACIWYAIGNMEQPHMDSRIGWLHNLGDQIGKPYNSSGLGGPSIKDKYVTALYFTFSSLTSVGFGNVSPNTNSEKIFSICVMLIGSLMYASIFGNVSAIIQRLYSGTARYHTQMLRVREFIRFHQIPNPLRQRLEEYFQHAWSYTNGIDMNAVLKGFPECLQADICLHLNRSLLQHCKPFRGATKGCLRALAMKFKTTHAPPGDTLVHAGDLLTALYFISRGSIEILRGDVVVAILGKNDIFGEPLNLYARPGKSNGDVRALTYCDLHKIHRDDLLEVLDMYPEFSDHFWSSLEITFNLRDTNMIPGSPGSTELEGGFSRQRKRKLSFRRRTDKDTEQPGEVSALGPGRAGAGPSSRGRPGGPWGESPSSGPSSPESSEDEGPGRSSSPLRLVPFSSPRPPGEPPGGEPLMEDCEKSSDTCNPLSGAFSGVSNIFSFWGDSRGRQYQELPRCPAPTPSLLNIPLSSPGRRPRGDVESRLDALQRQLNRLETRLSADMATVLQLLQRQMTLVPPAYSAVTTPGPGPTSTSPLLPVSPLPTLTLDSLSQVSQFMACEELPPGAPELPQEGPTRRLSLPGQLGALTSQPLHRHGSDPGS

Row | Compound | hERG current change (%, negative = inhibition) at 10uM [%]
1 | O=C(C[N+]12CCN(CC1)CC2)NCCc1ccc(Cl)cc1Cl.[Cl-] | 30.8
2 | COCCCNC(=O)C(=O)Nc1ccc2c(c1)N(S(=O)(=O)c1cccs1)CCC2 | -3.08
3 | CC(C)(C)NC(=O)CN(C(=O)CNS(=O)(=O)c1ccc(Cl)cc1)c1ccc2c(c1)OCCO2 | -19.9
4 | O=C(Nc1ccccc1)c1ccc(F)cc1F | 2.86
5 | O=C1CC(=O)N(Cc2ccco2)C(=O)N1 | 4.05
6 | CCOC(=O)c1[nH]c2ccc(OC)cc2c1NC(=O)c1cccc(OC)c1 | -9.15
7 | CC(=O)NS(=O)(=O)c1ccc(NC(=O)c2cc(-c3ccc(C)cc3)nc3ccccc23)cc1 | -2.67
8 | C(=N\Nc1nc2ccccc2[nH]1)/c1ccc2ncccc2c1 | 6.85
9 | CCn1cc(CNC(=O)c2ccc(C)s2)cn1 | 21.6
10 | Cc1nn(-c2ccccc2)c(Cl)c1C(=O)Nc1ccccc1 | -5.14
11 | c1ccc(-n2nnnc2-n2nnc3ccccc32)cc1 | 7.46
12 | CC(=O)c1sc2nsc(SCCN3CCCC3)c2c1N | -0.32
13 | O=C(CNS(=O)(=O)c1cccs1)Nc1ccc2c(c1)OCCO2 | 10.8
14 | COCC(=O)N(Cc1cc2ccc(C)cc2[nH]c1=O)c1cccc(C)c1 | -8.87
15 | C/C(=N\NC(=O)c1ccccc1)c1ccc(NC(=O)c2cccs2)cc1 | -14.2
16 | CN(C)S(=O)(=O)c1ccc(C(=O)OCC(=O)c2ccc3c(c2)NC(=O)CO3)cc1 | 11.4
17 | CN(C)S(=O)(=O)c1cccc(-c2nnc(SCc3ccc4c(c3)OCCO4)o2)c1 | -5.21
18 | CN(C)CCC(=O)c1ccc(F)cc1.Cl | -7.33
19 | Cc1ccc(-n2c(SCC(=O)OC(C)C)nnc2-c2ccco2)cc1 | -37.7
20 | COc1ccc(S(=O)(=O)N2CCC3(CC2)CC(=O)c2ccccc2O3)cc1 | -24.8
21 | COc1ccc(Oc2ncnc3c2ncn3Cc2ccccc2)cc1 | -11.9
22 | CC(C)(C)Cc1nnc(NC(=O)c2ccc3c(c2)OCO3)s1 | 27

Row | Compound | hERG current change (%, negative = inhibition) at 10uM [%]
23 | Clc1ncccc1-c1nc2ccccc2n1Cc1ccccc1 | -33.5
24 | COC(=O)C(O)(c1ccc(N=Cc2ccccc2O)c(C)c1)C(F)(F)F (stereo not shown) | 9.51
25 | O=C(O)c1cccc(Nc2nc(-c3cc4ccccc4oc3=O)cs2)c1 | 20.9
26 | CCn1c(=NC(=O)C2COc3ccccc3O2)sc2c(C)ccc(OC)c21 (stereo not shown) | 9.04
27 | CCOC(=O)C1CCN(C(C(=O)NC2CCCC2)c2ccc(C)cc2)CC1 (stereo not shown) | -21.8
28 | CCc1ccccc1N(C(=O)c1cccs1)C1C=CS(=O)(=O)C1 (stereo not shown) | -35.7
29 | CN(C)S(=O)(=O)c1cccc(NC(=O)CSc2nc3ccccc3n2-c2ccccc2)c1 | 5.62
30 | Cc1ccc(S(=O)(=O)NC2CCCCC2)c(C)c1NS(C)(=O)=O | 15.2
31 | CC(C)C(=O)Nc1ccc(NC(=S)NC(=O)c2ccccc2F)cc1 | -4.84
32 | CSc1nnc([C@@H](N)Cc2ccccc2)o1.Cl | -14.5
33 | O=[N+]([O-])c1cccc(/C=N/Nc2ccccn2)c1 | 10.3
34 | CC(=O)Nc1ccc(NC(=O)c2ccccc2CC[N+](=O)[O-])cc1 | 3.07
35 | Cc1nn(C)c(Cl)c1NC(=O)OCc1ccc(F)cc1 | 1.51
36 | Cc1ccc(C)c(C(C)NC(=O)C2CCCO2)c1 (stereo not shown) | 17.6
37 | CCOc1ccc(C(=O)NN2C(=O)C3C4C=CC(O4)C3C2=O)cc1 (stereo not shown) | -14
38 | C/C(CC(=O)Nc1ccc(C)c(Cl)c1)=N\NC(=O)c1cccc(O)c1 | 4.04
39 | COCCNC(=S)NNc1ccccc1[N+](=O)[O-] | 21.5
40 | CCOC(=O)Cc1nn(Cc2ccccc2)c(=O)c2ccccc12 | -25.7
41 | CSc1nc(N)n2nc(-c3ccccc3)cc2n1 | 9.91
42 | O=C(N[C@H](C(=O)O)c1ccccc1)C1CCC(Cn2cnc3ccccc3c2=O)CC1 (stereo partly shown) | 5.75
43 | CCOc1ccccc1NC(=O)c1cc(SC)ccc1Cl | 50.4
44 | COc1ccc(/C=N\NC(=O)c2ccccc2Cl)cc1COc1c(F)c(F)c(F)c(F)c1F | 11.6

Row | Compound | hERG current change (%, negative = inhibition) at 10uM [%]
45 | Cc1ccc(C(=O)OCC(=O)N(C)C2CCS(=O)(=O)C2)cc1[N+](=O)[O-] (stereo not shown) | 5.04
46 | N#CCCn1nnc(-c2ccccc2F)n1 | 28.4
47 | CCOc1cc2[nH]c(=O)n(Cc3cccc(OC)c3)c(=O)c2cc1OCC | 10.4
48 | COc1ccc(CN(C)C(=O)Cc2c[nH]c3ccccc23)cc1 | 13.5
49 | CCCCSc1nnc(-c2cc3c(C(F)(F)F)nn(C)c3s2)n1C | -6.8
50 | C/C(=N\NC(=O)c1ccncc1)c1c(O)n(-c2ccccc2)c(=O)[nH]c1=O | 7.65
51 | O=C(c1cccc(S(=O)(=O)Nc2ccccc2Cl)c1)N1CCC1 | -0.443
52 | CCn1c(SCC(=O)Nc2cc(C)on2)nnc1-c1cccs1 | -10.6
53 | O=C(NNC(=O)c1ccc(F)cc1)c1ccncc1 | 16
54 | O=C(NCC1CCCO1)c1ccc(NS(=O)(=O)c2ccccc2)cc1 (stereo not shown) | 18.4
55 | CCCCc1nc(Cl)c(C#N)c2c1CSC(C)(C)C2 | -13.1
56 | O=c1c2ccccc2c(-c2ccccc2)nn1-c1ccccc1 | 2.58
57 | CN(C)c1ccc(/C=N/OC(=O)Nc2ccccc2Cl)cc1 | 1.57
58 | O=C(Cc1n[nH]c(=O)c2ccccc12)Nc1cccc(S(=O)(=O)N2CCCCCC2)c1 | -57.8
59 | CCOC(=O)c1cnc2ccc(OCC)cc2c1NCc1ccccc1OC | 4.45
60 | O=C(CSc1nnc(CNC(=O)c2ccco2)o1)c1ccccc1 | 4.14
61 | COc1ccc(-c2csc(NC(=O)CSc3n[nH]c(C)n3)n2)cc1 | -4.9
62 | COC(=O)CC1=NN(c2ccccc2)C(=O)C1 | 9.08
63 | Cc1ccc(S(=O)(=O)N2CCCN(C)CC2)cc1.Cl | -4.52
64 | COc1ccc(C2NN=C(c3c[nH]c4ccccc34)C2O)cc1 (stereo not shown) | 14.6
65 | COc1cc(CNCCc2c[nH]c3ccccc23)ccc1OCc1ccc(F)cc1.Cl | -48.4
66 | C[C@@H](NC(=O)[C@@H]1Cc2ccccc2CN1C(=O)OC(C)(C)C)C(=O)NC1CCCCC1 | 4.59

Row | Compound | hERG current change (%, negative = inhibition) at 10uM [%]
67 | Cc1cccc(NCCNc2cccc(C)c2)c1 | -0.0941
68 | CC(=O)Nc1ccc(C(=O)OCCCOC(=O)c2ccc(NC(C)=O)cc2)cc1 | 5.65
69 | CCCCOCCCn1c(N)c(C(=O)OC(C)COC)c2nc3ccccc3nc21 (stereo not shown) | -9.66
70 | COc1cc(CN2CCC(C(=O)N3CCN(c4ccccc4F)CC3)CC2)cc(OC)c1O.O=C(O)C(=O)O | -3.74
71 | O=C(NCc1nc2ccccc2[nH]1)C1=C[C@@H](C2CCCCC2)C[C@@H](OCc2ccc(CO)cc2)O1 | 2.48
72 | O=C1C2CCCCN2C(=O)N1CCN1CCN(c2ccc([N+](=O)[O-])cc2)CC1 (stereo not shown) | -71.5
73 | COc1c(C(=O)Nc2ccc3[nH]c(=O)[nH]c3c2)cc2ccccc2c1Br | 16.6
74 | CCCc1cc(=O)[nH]c(SCC(=O)N2CCc3cc(OC)c(OC)cc3C2)n1 | -1.31
75 | CC(C)c1nnc(NC(=O)CCC(=O)NCc2ccccc2Cl)s1 | 11.2
76 | CN(C)CCCN(C(=O)c1ccc(S(=O)(=O)N2CCCC2)cc1)c1nc2c(F)cc(F)cc2s1.Cl | -44.3
77 | COc1ccc(NC2CC(=O)N(CCc3ccccc3)C2=O)cc1 (stereo not shown) | -1.2
78 | CSc1ccc(CCNC(=O)c2cc(-c3ccccc3)c(N3CCOCC3)s2)cc1 | -1.02
79 | CCn1c(C)cc(/C=C2/NC(=O)N(CC(=O)Nc3cccc(C)c3)C2=O)c1C | -6.29
80 | COCCn1cc(C(=O)NCc2cccs2)c2c3ccccc3n(C)c2c1=O | -10.5
81 | CCN(CC(=O)Nc1ccc(NC(C)=O)cc1)C(=O)c1cccc2ccccc12 | 1.23
82 | CC(Sc1nnnn1-c1ccc(Cl)cc1)C(=O)NCC(=O)Nc1ccc(F)c(F)c1F (stereo not shown) | 9.14
83 | CCOc1ccc(NC(=O)/C(C#N)=C/c2ccc(N3CCCC3)c(C)c2)cc1 | 4.16
84 | CC(=Nc1ccc(Br)cc1)c1sc2ccccc2c1O | 5.43
85 | COc1ccc(/C=N/NC(=O)c2ccncc2)cc1CSc1nc2ccccc2s1 | 16.3
86 | Cc1[nH]n(-c2ccccc2)c(=O)c1C(=O)c1ccc(Cl)cc1 | 14.8
87 | C[C@]12CC[C@H](O)C[C@H]1CC[C@@H]1C2CC[C@]2(C)[C@@H](C3=CC(=O)OC3)[C@@H](O)C[C@]12O (stereo partly shown) | 21.1
88 | CC(=O)Cc1nsc(NC(=O)c2cc(-c3ccc(Cl)c(Cl)c3)oc2C)n1 | 10.7
